A collection of fitness landscapes (doi:10.1016/j.celrep.2020.107928)
Over roughly 81,000 sequences, “one-hybrid fitness for binding NBS DNA” has its median near -0.1; the highest 2% begin near 0.36. Some of the results follow.

B1: Caulobacter ParB omega fusion; a variant is named by its letters at X, in order, B8GW30 (parent)
chain: MESVVVGEPGMSEGRRGLGRGLSALLGEVDAAPAQAPGEQLGGSREAPIEILQRNPDQPRRTFREEDLEDLSNSIREKGVLQPILVRPSPDTAGEYQIVAGERAWRAAQRAGLKTVPIMVRELDDLAVLEIGIIENVQRADLNVLEEALSYKVLMEKFERTQENIAQTIGKSXSHVANXMRLLXLPDEVQSYLVSGELTAXHARAIAAAADPVALAKQIIEGGLSVRETEALARKAPNLSAGKSKGGRPPRVKDTDTQALESDLSSVLGLDVSIDHRGSTGTLTITYATLEQLDDLCNRLTRGI

Variants of: B1
Experiment: one-hybrid fitness for binding NBS DNA (the Noc-binding site; scaled: cognate 1, non-cognate 0); higher = stronger binding
Conditions: with NBS DNA site
Summary of the method: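 Bacterial one-hybrid selection in E. coli USO rpoZ- hisB- pyrF- with a HIS3 reporter carrying the site 19 bp from the promoter, screening Caulobacter ParB libraries with four specificity codons randomised (NNS). Cells grew 48 hours at 37°C on M9-minus-histidine plus 0.1 mM IPTG and 5 mM 3-AT. Plasmids before and after selection were Illumina-sequenced, three replicate libraries pooled, and variants under 10 reads dropped. Fitness is the log change in variant-to-wild-type read ratio, rescaled to cognate 1, non-cognate 0.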

| Variant | one-hybrid fitness for binding NBS DNA |
| --- | --- |
| IMLS | ≤ 0.2 |
| GNDH | ≤ 0.2 |
| LTQR | ≤ 0.2 |
| AVGI | ≤ 0.2 |
| FWRV | ≤ 0.2 |
| PHPS | ≤ 0.2 |
| KMVR | ≤ 0.2 |
| YAKI | ≤ 0.2 |
| RRWK | 0.249 |
| LKLS | ≤ 0.2 |
| STWQ | ≤ 0.2 |
| AAKI | ≤ 0.2 |
| TYAV | ≤ 0.2 |
| TLRF | ≤ 0.2 |
| QQTV | ≤ 0.2 |
| NQPR | ≤ 0.2 |
| RAQM | ≤ 0.2 |
| IHVS | ≤ 0.2 |
| AFVL | ≤ 0.2 |
| RTDQ | ≤ 0.2 |
| IGHL | ≤ 0.2 |
| LINS | ≤ 0.2 |
| AVLT | ≤ 0.2 |
| QKKS | 0.662 |
| MRVC | ≤ 0.2 |

| Variant | one-hybrid fitness for binding NBS DNA |
| --- | --- |
| CKRS | ≤ 0.2 |
| HLNC | ≤ 0.2 |
| PADI | ≤ 0.2 |
| ARRI | ≤ 0.2 |
| PFLM | ≤ 0.2 |
| PCHL | ≤ 0.2 |
| HAYN | ≤ 0.2 |
| NKIY | ≤ 0.2 |
| LNFM | ≤ 0.2 |
| AGDS | ≤ 0.2 |
| CSAM | ≤ 0.2 |
| EINR | ≤ 0.2 |
| NNET | ≤ 0.2 |
| TCPE | ≤ 0.2 |
| TCNR | ≤ 0.2 |
| FTHW | ≤ 0.2 |
| RYWE | ≤ 0.2 |
| NSLY | ≤ 0.2 |
| CSLC | ≤ 0.2 |
| MHPW | ≤ 0.2 |
| VKVS | ≤ 0.2 |
| RYIY | ≤ 0.2 |
| SSLG | ≤ 0.2 |
| GIIW | ≤ 0.2 |
| PKCV | ≤ 0.2 |

| Variant | one-hybrid fitness for binding NBS DNA |
| --- | --- |
| TVTV | ≤ 0.2 |
| KHKG | ≤ 0.2 |
| SWYE | ≤ 0.2 |
| IHNR | ≤ 0.2 |
| VIRD | ≤ 0.2 |
| SIHT | ≤ 0.2 |
| RPWI | ≤ 0.2 |
| TEKG | ≤ 0.2 |
| FPPH | ≤ 0.2 |
| RHCQ | ≤ 0.2 |
| QIFR | 0.301 |
| RHFW | ≤ 0.2 |
| TEGS | ≤ 0.2 |
| CNRM | ≤ 0.2 |
| TSAF | ≤ 0.2 |
| SMPA | ≤ 0.2 |
| KTSG | ≤ 0.2 |
| DAHL | ≤ 0.2 |
| ITFR | ≤ 0.2 |
| KFYS | ≤ 0.2 |
| GDNC | ≤ 0.2 |
| GRRT | ≤ 0.2 |
| DDVF | ≤ 0.2 |
| TDYG | ≤ 0.2 |
| DVFV | ≤ 0.2 |

| Variant | one-hybrid fitness for binding NBS DNA |
| --- | --- |
| QYHW | ≤ 0.2 |
| RRLK | ≤ 0.2 |
| GFYT | ≤ 0.2 |
| HGDC | ≤ 0.2 |
| CSWL | ≤ 0.2 |
| HYRL | ≤ 0.2 |
| PLNS | ≤ 0.2 |
| CIHG | ≤ 0.2 |
| WPYG | ≤ 0.2 |
| KKNR | 0.34 |
| GHTP | ≤ 0.2 |
| DLER | ≤ 0.2 |
| QKLW | ≤ 0.2 |
| LMAE | ≤ 0.2 |
| DRHS | ≤ 0.2 |
| HSKG | ≤ 0.2 |
| TVRY | ≤ 0.2 |
| IDTT | ≤ 0.2 |
| VRMC | ≤ 0.2 |
| EPIT | ≤ 0.2 |
| AVHG | ≤ 0.2 |
| RPTH | ≤ 0.2 |
